According to the RNAGym collection of RNA variant scans (doi:10.7554/elife.90254):
Read counts are not given, so values of variants with three or more changes are uncertain.

B1: LINE1-full (parent)
chain: UACGUAGGUGGUUUUCCCCUGAUAGUGCUAAGGGGGCCUGGAAGUUUGGACUGGGCAGAGCUCAACACAGCGUGGCAAAGUGGCUGUGGCUAGACUGCCUCUCUGGAUUCCUCGUCACUCAGCAGGGCAUCUCUGAGAGAAAUGCC

Variants of: B1
Experiment: self-cleavage, relative activity (ratio to wild type); higher = more cleavage; in vitro, sequencing; the parent is a self-cleaving ribozyme
U81C U100C A142G showed a self-cleavage of 0.74.
In the case of A30G U39C A59G, the self-cleavage is reported as 0.36.
A79G U85C U100C gave a self-cleavage of 0.
For U73A A117U A142G, the self-cleavage was 1.62.
A59G A67C U115C A141G showed a self-cleavage of 0.
Variant A2U A22U U39C has a self-cleavage of 1.02.
For U9A U14C A31U G97A, the self-cleavage was 0.06.
Work on A30G A77G U81C yielded a self-cleavage of 1.62.
U14C U115C A117U showed a self-cleavage of 2.23.
With A6G C63U G88A the self-cleavage was 0.21.
In the case of U81C U100C C118A G127C A140G, the self-cleavage is reported as 2.43.
U14C G48C U130C A138U showed a self-cleavage of 2.
Variant A22G A107G U119C has a self-cleavage of 0.94.
U47A A59G U119C showed a self-cleavage of 0.13.
U46G U100C A129G A142G gave a self-cleavage of 1.97.
With G34A U91C A129G A141G the self-cleavage was 0.46.
For A22G U39C A43G G72A A77G A117U A138G A141G, the self-cleavage was 0.71.
U20C G34A U39A U143C showed a self-cleavage of 1.
U23C U39C A59G U62C A142G gave a self-cleavage of 0.
With U26C U96C U134C A136U the self-cleavage was 0.1.
In the case of A6G U52A C90A U130C, the self-cleavage is reported as 0.06.
Variant G4A G10A A42G U104A A136G has a self-cleavage of 0.
For A2U A57U U73C, the self-cleavage was 0.17.
Variant A2G U20A A79G U87A has a self-cleavage of 0.
A6G U26C C95U U115C showed a self-cleavage of 0.62.
In the case of A30G A94G A107G C111U A140G, the self-cleavage is reported as 2.87.
C61G A94G U100C A142G gave a self-cleavage of 0.
For G10A U13C U62C U85C A141G, the self-cleavage was 0.
Variant G7C A64U A78U U130C A140G has a self-cleavage of 0.85.
For U13C U46C A64G A142G, the self-cleavage was 1.31.
Variant C37U U102A A136U A140U A141G has a self-cleavage of 1.28.
U13C U47C G89A showed a self-cleavage of 0.13.
Variant A31U U104A U134A has a self-cleavage of 1.11.
Variant C19G G32C A138G has a self-cleavage of 1.7.
G10A A67G U134A gave a self-cleavage of 0.16.
Work on A31U A67G U134C A142G yielded a self-cleavage of 1.53.
Variant G21A A31G G70U A142G has a self-cleavage of 0.04.
Variant A67G A78G U87C has a self-cleavage of 2.51.
A2G G27A U39C showed a self-cleavage of 0.69.
Work on A2U U39A U91A A107G yielded a self-cleavage of 0.88.
Work on U23C U47C U87C A124U yielded a self-cleavage of 0.
With U12C A69C U115C the self-cleavage was 0.
With U62C U87A A124G the self-cleavage was 0.07.
A2G A69G U104C gave a self-cleavage of 0.77.
In the case of U23C U100C U132A, the self-cleavage is reported as 2.04.
For U52A U109C U143C, the self-cleavage was 1.37.
With A2G U62C A138G the self-cleavage was 0.08.
U81C U108G A129G gave a self-cleavage of 1.31.
Variant A65G A77G A129U C145U has a self-cleavage of 0.
U13C U15C A64U A141G showed a self-cleavage of 0.47.
U14C U81C A140G gave a self-cleavage of 1.23.
U14C A50G A65G showed a self-cleavage of 0.
Variant A92G U112A U132C has a self-cleavage of 0.06.
In the case of G8A U20A A142U, the self-cleavage is reported as 1.31.
Variant U5C A64U G82A has a self-cleavage of 0.78.
In the case of U62A U87A A142G, the self-cleavage is reported as 0.07.
In the case of U46C A57G A142G, the self-cleavage is reported as 0.
Variant U9A G35A A59G U73A U130C A138G has a self-cleavage of 0.04.
With A43U A117G A140U the self-cleavage was 2.45.
Work on A2G A65G C76U C90U yielded a self-cleavage of 0.
U9A U26A U100C showed a self-cleavage of 1.25.
In the case of A69U U119C A129U, the self-cleavage is reported as 0.19.
A24G G27A A42G U46C A57G G70A C133U gave a self-cleavage of 0.25.
With U14C U132C A138U the self-cleavage was 0.62.
In the case of U62A A65G G89A, the self-cleavage is reported as 0.03.
A2G G75A U81A gave a self-cleavage of 0.97.
Work on G35U A92U U102A yielded a self-cleavage of 0.57.
U47C U96G C131U U132A showed a self-cleavage of 0.23.
Variant A64G A65U G82U has a self-cleavage of 0.
With U29C A65G U85A the self-cleavage was 0.09.
With C17U U108C U119C A138U the self-cleavage was 2.14.
U100C U130C U143A showed a self-cleavage of 1.09.
In the case of G74A U91C A94G A117G, the self-cleavage is reported as 0.
Variant U9C U15C G74A U119C A142C has a self-cleavage of 1.22.
Work on A2G U46C A138G yielded a self-cleavage of 1.24.
Work on U12A C71U U96A yielded a self-cleavage of 0.07.
With U5C G8A A42G the self-cleavage was 1.1.
A31U A79G A121G gave a self-cleavage of 0.
A22G C28A U73A showed a self-cleavage of 0.83.
Variant U15C U104G U108C U130A has a self-cleavage of 0.92.
A57G U62C U85C gave a self-cleavage of 0.21.
U62C U85C A94U U96C gave a self-cleavage of 0.
U62A U100A U119A showed a self-cleavage of 0.04.
In the case of A43U A57G U62C U73C A129U, the self-cleavage is reported as 0.
For A2G U12G G34U U109A, the self-cleavage was 0.57.
U15A A22G A67U G122A U134C A140G gave a self-cleavage of 0.16.
Work on U1C C63U A124G yielded a self-cleavage of 0.11.
Work on U13C U52A G72A A107G yielded a self-cleavage of 1.21.
With C37A A124G A138G U143C the self-cleavage was 0.76.
C19U U26C A79G showed a self-cleavage of 0.88.
In the case of U20C G48A U115C G126U, the self-cleavage is reported as 1.46.
Variant U20C U115A U143C has a self-cleavage of 1.57.
With G36A A107G U115C the self-cleavage was 0.82.
Work on U14A U96A U130C yielded a self-cleavage of 0.05.
Variant A2G U9A A65G has a self-cleavage of 0.23.
With C17U U26A C120U the self-cleavage was 1.21.
Variant U12C U46C U143A has a self-cleavage of 0.9.
U108C U115A U143A showed a self-cleavage of 2.38.
Variant A6G A64U U102C has a self-cleavage of 0.31.
Work on U13C U115A A129G yielded a self-cleavage of 0.96.
Work on G82A C101A A141G yielded a self-cleavage of 2.3.
For C17A U81C U100C A129U, the self-cleavage was 1.84.
For U85C U119C U132A, the self-cleavage was 0.31.
U52C U81G A142G showed a self-cleavage of 0.64.
For U52A U62A A64G A69G A94U U143C, the self-cleavage was 0.
Variant U14C U26A A59G A78G C113U A124U has a self-cleavage of 0.17.
Work on U9A U14C U73A U115C U130C yielded a self-cleavage of 1.31.
In the case of G21A U39C A59U, the self-cleavage is reported as 0.66.
In the case of U15A A59G C99A G126A, the self-cleavage is reported as 0.1.
U20A G44A A67G U108C A129G gave a self-cleavage of 0.
For U47C A94G U109C A129U, the self-cleavage was 0.
U20A U81A U102C C118G showed a self-cleavage of 1.01.
Work on G44A C66U U73C yielded a self-cleavage of 0.03.
In the case of U23C U52A U62A U132C, the self-cleavage is reported as 0.
For U46A A64U U112C, the self-cleavage was 0.25.
For G7A U26A A64G G126A, the self-cleavage was 0.09.
With U45A A65U G122A the self-cleavage was 0.05.
A2G G53U U115A showed a self-cleavage of 0.95.
For G21U A50G A65C A67G, the self-cleavage was 0.
U15C A117G A140U G144A showed a self-cleavage of 1.25.
Work on U1C A30C G34U A67U yielded a self-cleavage of 0.14.
Work on A6G A69U A78G A121U yielded a self-cleavage of 0.24.
In the case of U14C A57U A69G C76U, the self-cleavage is reported as 0.18.
For U14A A92C C113U, the self-cleavage was 0.13.
A24G U96C U143A showed a self-cleavage of 0.18.
A6G U20G A78G U115C gave a self-cleavage of 0.48.
Variant U26A A57C C71U U73A U102C has a self-cleavage of 0.02.
Work on U13A A22G G35U A124U U143C yielded a self-cleavage of 0.91.
A2G U73C A77U C128U showed a self-cleavage of 0.47.
Work on C71U U109C A138U A142G yielded a self-cleavage of 1.3.
Variant U52C A65G A94G has a self-cleavage of 1.02.
For U1C U143G C145U, the self-cleavage was 0.36.
In the case of G49A A77G A78G A94C, the self-cleavage is reported as 0.
In the case of G7A U9C A43G U73A A141G, the self-cleavage is reported as 1.36.
In the case of G48A G80A A141G, the self-cleavage is reported as 2.42.
Variant U20C U23C U119C has a self-cleavage of 1.84.
A64G A77G G80A A107U U130C gave a self-cleavage of 0.66.
With U15C C19U C37G A141G the self-cleavage was 1.65.
For A50U A67G U104C, the self-cleavage was 0.11.
In the case of U14C U20A U29C U81C U112A, the self-cleavage is reported as 0.
A57G G86A A107U gave a self-cleavage of 0.03.
For U15C A22G C116U U119A, the self-cleavage was 0.82.
With U14C U20C A42G A136G the self-cleavage was 0.84.
Work on U20A U39C A77U U132C yielded a self-cleavage of 0.97.
For A64U A79U U87C C145G, the self-cleavage was 0.1.
A2G G72A A141G showed a self-cleavage of 0.69.
A69U U115A A140G showed a self-cleavage of 0.
With U46C C51U C76U A140U the self-cleavage was 2.08.
U13A G32C A107G showed a self-cleavage of 1.67.
G32U A77U U85A U119A gave a self-cleavage of 0.04.
In the case of G32C A42G U91C A141G, the self-cleavage is reported as 0.44.
For U47C G122C G144A, the self-cleavage was 1.53.
With U14C U62A A129U the self-cleavage was 0.11.
With U13A U102A A107G the self-cleavage was 1.15.
For U45C A57G G127C, the self-cleavage was 1.23.
Variant A22U A79G A138G has a self-cleavage of 1.15.
Variant U46A A64C A117U U119C U143A has a self-cleavage of 0.46.
U20A G58A A79G A117U A121U gave a self-cleavage of 0.06.
Variant U39A A92G U100A has a self-cleavage of 0.12.
A64C U102A A142G gave a self-cleavage of 0.
U12G U14C A42G U87A C113A showed a self-cleavage of 0.44.
Variant U13C A22G A117C U132C has a self-cleavage of 1.1.
Work on G72U U91G G125A yielded a self-cleavage of 0.03.
U5C C17G A22G showed a self-cleavage of 0.33.
For G58U A64G A77G A121G, the self-cleavage was 0.
Work on A107G U119G A124U yielded a self-cleavage of 2.04.
In the case of U87A U100A U112C, the self-cleavage is reported as 0.05.
